Experimental findings from ChEMBL document CHEMBL4888484, “Replenishing the malaria drug discovery pipeline: Screening and hit evaluation of the MMV Hit Generation Library 1 (HGL1) against asexual blood stage Plasmodium falciparum ,using a nano luciferase reporter read-out” (2022) are described below.

In all, about 150,000 compounds went through this assay and about 540 (0.36%) showed an effect of 50% or more. Some of the results follow.

What is called % Inhibition is the relative decrease from the control value, in per cent.

The subject of this assay is Plasmodium falciparum. The experiment in a line: Primary screen in NF54 nanoGlo assay, in single point, at 2uM, 72h; a lower Z score goes with more inhibition. Type of assay: functional, Erythrocyte. The settings on record: timepoint 72 hour.
As to `O=C(NCC1CCN(C(=O)c2cnc[nH]2)CC1)C1CCCC1`, the “% Inhibition” value is -12% and the Z score was 2.21.
For the compound `O=C(NC[C@H](OCCO)c1cccs1)c1cccc(Cl)c1`, the “% Inhibition” value is -15% and the Z score is given as 1.71.
Taken in the same sequence, the figures for `O=C(NCC(c1ccco1)c1ccco1)c1ccoc1` were 14% and -1.81.
In the case of `CCCc1nc2ncnn2c(O)c1NC(=O)Nc1ccccc1Br`, the “% Inhibition” value was 2% and the Z score is listed as -0.44.
For `Cc1c(C(=O)N2CCNC(=O)[C@@H]2c2ccc(F)cc2)n(C)c2ccc(F)cc12`, the “% Inhibition” value is on record as -11% and the Z score amounted to 1.2.
The like results for `CCc1nc(-c2ccccc2)nc(N2CCN(C(=O)COC)CC2)c1Cc1cccc(C)c1` were, in that order, -14% and 1.94.
For `Cc1cc(F)ccc1-n1cc(C(=O)N(CCc2ccccc2)[C@H]2CCOC2)nn1`, the “% Inhibition” value is listed as 1% and the Z score is given as -0.13.
For the compound `CC1(CNC(=O)C2CC3CCCCC3N2c2ncccn2)CCCO1` (stereo unspecified), the “% Inhibition” value is on record as -5% and the Z score came to 0.43.
Consider `Cc1cc(NS(=O)(=O)CCc2cccc(F)c2)cnc1C`, for which the “% Inhibition” value is given as -6% and the Z score is 1.06.
Take `Cc1ccc(Oc2c(CN(CC(C)C)C[C@@H](O)Cc3ccccc3)c(C)nn2-c2ccccc2)cc1`: the “% Inhibition” value is -3% and the Z score is recorded as 0.51.
Consider `O=C(NCc1nccc(N2CCCCC2)n1)c1cccc(F)c1`, for which the “% Inhibition” value was -8% and the Z score turned out to be 1.28.
The like results for `c1ncc(CNC23CCC(CC2)C3)cn1` were, in that order, 1% and -0.1.
Taken in the same sequence, the figures for `CCc1nc(C)c(C(=O)N(C)Cc2cc(C3CC3)[nH]n2)s1` were -7% and 1.04.
In the case of `Cc1nsc(N2CC3(CCOCC3)[C@@H]3CCC[C@@H]32)n1`, the “% Inhibition” value is listed as -14% and the Z score stood at 1.7.
Consider `CC(=O)NC1CCC(N(C)C(=O)c2nn(C(C)(C)C)cc2Br)CC1` (stereo unspecified), for which the “% Inhibition” value was -4% and the Z score is recorded as 0.55.
Taken in the same sequence, the figures for `CCOC(=O)c1noc2nc(C)nc(N3CCN(c4ncccn4)CC3)c12` were -10% and 1.93.
Turning to `Clc1ccccc1OCc1noc2c1COCC2`, the “% Inhibition” value is reported as -12% and the Z score amounted to 1.65.
Taken in the same sequence, the figures for `COCC(O)CN(C)C(=O)C(C)c1ccsc1` (stereo unspecified) were 2% and -0.22.
The like results for `COc1c(C)cc(N)cc1Br` were, in that order, 3% and -0.53.
Consider `CCN1CCCn2nc(C3CCN(C(=O)c4cccc(C(F)(F)F)c4)CC3)cc2C1=O`, for which the “% Inhibition” value is -1% and the Z score was determined as 0.16.
Taken in the same sequence, the figures for `Cc1ccc(NC(=O)CCS(=O)(=O)c2cc(-c3cc(C)no3)ccc2C)c(Br)c1` were -13% and 1.75.
In the case of `CC(C)(C)n1ncnc1NC(=O)CCN1CCCS1(=O)=O`, the “% Inhibition” value was determined as 10% and the Z score is listed as -1.69.
The like results for `CCn1cncc1Cn1ccnc1-c1ccc(O)c(OC)c1` were, in that order, -8% and 1.33.
As to `Cc1noc(C)c1S(=O)(=O)N(C[C@H]1CCOC1)C1CC1`, the “% Inhibition” value is recorded as -7% and the Z score is 0.59.
For `Cc1cc(=O)c(C(=O)N[C@@H](C)c2nc(C)sc2C)c[nH]1`, the “% Inhibition” value is recorded as 0% and the Z score is listed as 0.01.
Taken in the same sequence, the figures for `CN(Cc1cnn(-c2ccccc2)c1)c1ccncc1Cl` were 2% and -0.33.
Taken in the same sequence, the figures for `Cc1ccc(NC(=O)c2ccc3c(c2)CCCN3S(=O)(=O)c2ccc(Cl)cc2)c(C)c1` were -7% and 1.29.
The like results for `COc1ccc(S(=O)(=O)Nc2nc(C)cs2)cn1` were, in that order, 6% and -0.74.
On to `COCC(C)(C)NC(=O)[C@H]1CCCN(C2CCN(C3Cc4ccccc4C3)CC2)C1`, for which the “% Inhibition” value stood at 0% and the Z score is given as -0.08.
`O=C(c1cnns1)N1CCC[C@H]1c1ccc2c(c1)OCCO2`: the “% Inhibition” value is listed as -5% and the Z score is recorded as 0.66.
In the case of `Cc1ccc(-c2cn(CC(=O)NCc3ccc(F)cc3)nc2N(C)C)cc1`, the “% Inhibition” value is recorded as -14% and the Z score was 1.6.
The like results for `O=C([C@H]1C[C@@H]1c1ccccc1Cl)N1CCCn2nnnc21` were, in that order, -4% and 0.59.
The like results for `COC1(C(F)(F)F)CCN(c2nnnn2C2CC3CCC2C3)CC1` (stereo unspecified) were, in that order, -12% and 1.58.
The like results for `CN1C(=O)CC[C@@H]1CN1CCN(c2ccccn2)CC1` were, in that order, -21% and 2.65.
`Cc1ccc(C)c(-n2nc(C3CC3)nc2-c2ccc(=O)[nH]n2)c1`: the “% Inhibition” value is listed as -7% and the Z score was 0.96.
Taken in the same sequence, the figures for `COC(=O)c1ccccc1NC(=O)[C@H]1C[C@H]2CCCN2[C@@]12C(=O)Nc1ccccc12` were -10% and 0.94.
In the case of `CCC(Cn1cncn1)NC1CCN(c2cccc(OC(F)(F)F)c2)C1` (stereo unspecified), the “% Inhibition” value is recorded as -4% and the Z score turned out to be 0.55.
As for `CC(C)c1cnc(CN[C@@](C)(CO)C2CCCCC2)o1`, the “% Inhibition” value is listed as -3% and the Z score is reported as 0.32.
The like results for `Cc1n[nH]c(CN(C)Cc2ccc(-n3cccn3)cc2)n1` were, in that order, -8% and 1.43.
Taken in the same sequence, the figures for `CN(C)[C@@H](CNc1nccn2nnnc12)c1cccs1` were -1% and 0.24.
The like results for `CCc1ccsc1C(=O)N1CCCC[C@@H]1C(=O)O` were, in that order, -9% and 1.15.
`Cc1cc(C)nc(NS(=O)(=O)c2ccc(NC(=O)c3cc(-c4ccccc4)on3)cc2)n1`: the “% Inhibition” value is 19% and the Z score is on record as -2.18.
Regarding `COCC(=O)NC1CCN(c2ccccc2C(=O)N2CCCCC2)CC1`, the “% Inhibition” value was -11% and the Z score came out at 1.67.
